Measurements reported in PMC4336329 (PLoS ONE, 2015).
Out of some 310,000 compounds screened, about 2,200 (0.71%) showed an effect of 50% or more. Effects have a minus sign here. The list shows a part of the results.

These molecules were tested against human ether-à-go-go-related gene (hERG) potassium channel (human, UniProt Q12809) (assay: primary screen, population patch clamp on CHO cells stably expressing hERG).
Chain of human ether-à-go-go-related gene (hERG) potassium channel (Q12809 whole entry, looked up): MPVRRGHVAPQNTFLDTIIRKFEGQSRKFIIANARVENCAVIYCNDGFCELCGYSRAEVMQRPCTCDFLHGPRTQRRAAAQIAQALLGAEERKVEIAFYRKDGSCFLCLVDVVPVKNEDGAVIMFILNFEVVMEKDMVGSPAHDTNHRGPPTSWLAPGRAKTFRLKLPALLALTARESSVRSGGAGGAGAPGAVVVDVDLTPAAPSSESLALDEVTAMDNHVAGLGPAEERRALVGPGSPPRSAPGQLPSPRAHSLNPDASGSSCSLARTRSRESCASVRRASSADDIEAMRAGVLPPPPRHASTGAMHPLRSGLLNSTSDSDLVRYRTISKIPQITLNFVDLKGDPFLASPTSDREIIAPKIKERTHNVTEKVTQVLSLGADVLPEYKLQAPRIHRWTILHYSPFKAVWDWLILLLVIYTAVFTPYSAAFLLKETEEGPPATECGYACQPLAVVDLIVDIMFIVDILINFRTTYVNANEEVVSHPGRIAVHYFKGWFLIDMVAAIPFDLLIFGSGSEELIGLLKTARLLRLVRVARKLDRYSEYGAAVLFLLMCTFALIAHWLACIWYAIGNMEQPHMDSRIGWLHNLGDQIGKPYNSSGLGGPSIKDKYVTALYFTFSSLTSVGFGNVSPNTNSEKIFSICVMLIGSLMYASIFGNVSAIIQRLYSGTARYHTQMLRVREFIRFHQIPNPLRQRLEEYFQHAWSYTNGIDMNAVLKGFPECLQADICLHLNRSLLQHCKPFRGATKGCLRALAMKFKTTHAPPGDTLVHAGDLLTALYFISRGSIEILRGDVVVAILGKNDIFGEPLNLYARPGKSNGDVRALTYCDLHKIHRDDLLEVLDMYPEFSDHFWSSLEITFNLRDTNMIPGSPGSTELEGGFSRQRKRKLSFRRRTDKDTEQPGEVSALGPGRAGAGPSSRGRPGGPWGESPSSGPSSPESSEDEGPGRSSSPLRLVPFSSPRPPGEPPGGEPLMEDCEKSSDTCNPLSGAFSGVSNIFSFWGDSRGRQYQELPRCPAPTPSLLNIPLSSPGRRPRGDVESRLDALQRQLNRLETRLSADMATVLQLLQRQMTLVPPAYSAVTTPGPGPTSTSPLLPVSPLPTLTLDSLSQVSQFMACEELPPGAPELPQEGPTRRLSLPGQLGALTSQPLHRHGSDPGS

| SMILES | hERG current change (%, negative = inhibition) at 1uM |
| --- | --- |
| CC(NS(=O)(=O)OCC(Cl)(Cl)Cl)c1ccc(C(C)(C)C)cc1 (stereo not shown) | 13.3% |
| O=S(=O)(CCc1ccncc1)Cc1ccc2c3c(cccc13)CC2 | 13% |
| Cc1ccc(NC(=O)C(Nc2cccc(C)c2)c2ccccc2)cc1 (stereo not shown) | 5.62% |
| CC(C)CC1CCCCC1OC(=O)CN1CCCCC1 (stereo not shown) | 18.5% |
| CCn1c(C)nc2c1C(=O)c1ccccc1C2=O | 2.73% |
| COc1ccc2nc(SCC(=O)Nc3c(C)cc(C)cc3C)[nH]c2c1 | 19.5% |
| Cn1c(SCC(=O)NC2CC2)nnc1C(F)(F)F | 2.9% |
| COc1cc(/C=N/NC(=O)C(=O)NCc2ccco2)ccc1O | 4.87% |
| Nc1ccc(/C=C/C(=O)c2cccs2)cc1 | 7.35% |
| CC(C)Cc1nnc(NC(=O)CN2C(=O)NC3(CCCC3)C2=O)s1 | -1.25% |
| COc1ccc(S(=O)(=O)N2CCC(C(=O)NCc3cccs3)CC2)cc1 | 9.41% |
| Cc1cccc(C(=O)NNC(=O)c2n[nH]c(=O)c3ccccc23)c1C | 2.94% |
| CCSc1nnc(NC(=O)CSc2c(Cl)cccc2Cl)s1 | 0.994% |
| COCCn1c(Sc2ccc(C)cc2)nc2c1c(=O)[nH]c(=O)n2C | 11.1% |
| COc1ccccc1CN1CCN(Cc2nc(-c3ccccc3)no2)CC1 | -13.2% |
| CCOC(=O)/C(C#N)=C/c1ccc(N2CCN(C)CC2)cc1 | -7.63% |
| CC1CCC/C(=N\NC(=S)Nc2ccccc2)C1 (stereo not shown) | 19.7% |
| CCc1ccc(NC(=O)C(=O)NCC(O)c2ccccc2)cc1 (stereo not shown) | 10.9% |
| COc1ccc2oc(C(=O)OCC(=O)N(C)Cc3ccccc3)c(C)c2c1 | 10.7% |
| COc1cccc(CNC(=O)Cc2ccc(OC)c(S(=O)(=O)N3CCOCC3)c2)c1 | 17.9% |
| CCOC(=O)C1(CCOc2ccccc2)CCN(Cc2ccc(O)c(Cl)c2)CC1 | -2.25% |
| COc1ccc(CNC(=O)c2ccc3oc(C(C)C)nc3c2)cc1 | 4.38% |
| COC(=O)c1cc(S(=O)(=O)N2CCC(C)CC2)cn1C | 18.2% |

| SMILES | hERG current change (%, negative = inhibition) at 1uM |
| --- | --- |
| C/C(=N\NC(=O)c1cccc([N+](=O)[O-])c1)c1ccco1 | 5.62% |
| FC(F)(F)c1cnc(Nc2ccc(N3CCOCC3)cc2)c(Cl)c1 | 11.1% |
| CC1CC(C)CN(S(=O)(=O)N2CCCC(C(=O)NC3CCCCC3)C2)C1 (stereo not shown) | 14.7% |
| Nn1c(SCC(=O)Nc2ccc(S(=O)(=O)N3CCCC3)cc2)nnc1C(F)(F)F | 14% |
| CCN1CCN(C(=O)N(c2ccccc2)c2ccccc2)CC1 | 7.3% |
| CCC(=O)NC(=S)Nc1cccc(NC(=O)CC)c1 | 11.7% |
| COc1ccc(CNC(=O)C(Cc2ccccc2)n2cccc2)cc1 (stereo not shown) | 10.4% |
| COC(=O)c1sccc1NC(=O)COc1cccc(C)c1 | 9.28% |
| CCC12CN3CC(CC)(CN(C1)C3c1ccc(OC(C)C)cc1)C2=O (stereo not shown) | 7.91% |
| O=C(Nc1cccc(-c2ccccc2)c1)N1CCN(C(=O)Nc2cccc(-c3ccccc3)c2)CC1 | 11.8% |
| CCc1ccc(-c2nnn(CCC#N)n2)cc1 | 11.3% |
| CC(C)[C@H](NC(=O)[C@@H]1Cc2ccccc2CN1C(=O)OC(C)(C)C)C(=O)NCC1CCCO1 (stereo partly shown) | 0.821% |
| CC(=O)NC(=S)Nc1ccc(NC(=S)NC(=O)c2cccs2)cc1 | 15.5% |
| O=C(Nc1ccccc1)N1CCCC2CCCCC21 (stereo not shown) | -1.96% |
| COc1cc(/C=N/Nc2ccc(C)cc2)cc(Br)c1O.Cl | 14.1% |
| O=C(OCC(=O)N1CCCc2ccccc21)c1ccccc1[N+](=O)[O-] | -2.07% |
| CC(=O)Nc1cc[n+](CC(=O)c2cccc([N+](=O)[O-])c2)cc1.[Cl-] | 4.12% |
| CCOC(=O)COc1ccccc1C(=O)c1cnn(-c2ccccc2)c1 | 14% |
| CCCCCN(C(=O)COC(=O)Cc1c(C)nc2ccccc2c1C)c1c(N)n(CCCC)c(=O)[nH]c1=O | 14.5% |
| Cc1cc(N/C=C2\CCCCC2=O)no1 | 11.3% |
| CSc1scc2c1-c1nc(SCC(=O)C(C)(C)C)ncc1CC2 | 12.9% |
| O=C(COC(=O)Cc1ccsc1)Nc1ccc(Cl)cn1 | 16% |
| O=C(C1COc2ccccc2O1)N1CCN(c2nc3c(F)cc(F)cc3s2)CC1 (stereo not shown) | 4.54% |
